In all, about 410,000 compounds went through this assay and about 6,400 (1.6%) were called active. The shares of active, inactive and inconclusive entries below differ from those in the screen. Calls follow the shape of the dose curve; as a rule, active = well fitted inhibition curve with a large enough effect; inconclusive = small, poorly fitted or top-dose-only effect; inactive = no such curve, though single readings can be large or run the other way. Potencies beside an inconclusive call are fits to weak or partial responses and may not hold up.
Target: Glucagon-like peptide 1 receptor (Homo sapiens) (UniProt P43220)
Assay: qHTS of GLP-1 Receptor Inverse Agonists (Inhibition Mode); also: nearly all actives have a fitted effect of over 55% in size
Conditions: HEK293 GLP-1R CRE-luciferase, luminescence, 24 h, GLP-1R form is constitutively active; activity change, negative = inhibition: at 38.3 µM (top of the series) unless noted
How it was run: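 Seeding at 200 cells/uL, 12 h culture, 24 hr compound treatment, then luciferase reagent and a luminescence read; cells are HEK293 stably expressing a constitutively active GLP-1R plus cAMP-responsive luciferase.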
% is scaled to controls: 0 for no effect and ±100 for the full control effect; potency is read from the fitted curve at half-maximal effect; tags tell the direction and shape of the fitted curve.

Sequence of UniProt P43220 (P43220 whole entry, looked up): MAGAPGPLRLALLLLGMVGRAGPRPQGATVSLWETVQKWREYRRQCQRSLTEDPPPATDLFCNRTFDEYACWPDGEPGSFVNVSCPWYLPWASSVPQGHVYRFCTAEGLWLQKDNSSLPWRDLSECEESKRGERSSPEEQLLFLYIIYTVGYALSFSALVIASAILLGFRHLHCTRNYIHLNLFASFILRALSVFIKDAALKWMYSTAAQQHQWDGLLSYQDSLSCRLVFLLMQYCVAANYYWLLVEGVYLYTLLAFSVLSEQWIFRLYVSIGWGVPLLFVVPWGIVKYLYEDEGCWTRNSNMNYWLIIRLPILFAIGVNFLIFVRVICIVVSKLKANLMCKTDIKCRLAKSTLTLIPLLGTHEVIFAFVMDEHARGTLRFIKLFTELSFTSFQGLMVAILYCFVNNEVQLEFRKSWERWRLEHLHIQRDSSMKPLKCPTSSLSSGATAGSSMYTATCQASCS

Potency, inconclusive:
Clc1cccc(CNc2ccn3nc(-c4ccco4)cc3n2)c1 28.2 µM [inhibitor, single point]
CCOc1ccc(NC(=O)CCC(=O)c2ccc(-c3ccccc3)cc2)cc1 11.2 µM [inhibitor, single point]
O=C(NCc1ccc2c(c1)OCO2)C1CCCN(S(=O)(=O)c2cccs2)C1 (stereo unspecified) 6.31 µM [inhibitor, partial curve, poor fit]
CCOC(=O)c1ccc(NC(=O)Oc2cc(C)c(Cl)cc2C(C)C)cc1 11.2 µM [inhibitor, single point]
COc1ccc([C@H]2/C=C\CN(C(=O)c3ccccc3)[C@@H](C)C(=O)N2Cc2ccc(F)cc2)cc1 11.2 µM [inhibitor, single point]
COC1c2ccccc2C(=O)N1CCc1ccc(Cl)cc1 (stereo unspecified) 14.1 µM [inhibitor, single point]
O=C(CSc1nc2ncccc2[nH]1)Nc1ccccc1-c1ccccc1 28.2 µM [inhibitor, single point]
CN1CCN(CCOc2ccc(-c3ccccc3)cc2)CC1 20 µM [inhibitor, partial curve, poor fit]
O=C(Nc1ccn(CCCNC2CCN(Cc3ccccc3)CC2)c(=O)n1)OCc1ccccc1 11.2 µM [inhibitor, partial curve, poor fit]
COc1ccc(-c2csc(N(CCCN(C)C)C(=O)c3ccccc3F)n2)cc1 28.2 µM [inhibitor, single point]
O=C(Cc1nc2ccccc2[nH]1)c1ccc(Cl)cc1 28.2 µM [inhibitor, single point]
CCN(CC(=O)NCc1ccc(F)cc1)S(=O)(=O)c1ccc(C)cc1 28.2 µM [inhibitor, single point]
COC(=O)C(Cc1ccccc1)NC(=S)NC(=O)c1ccccc1 (stereo unspecified) 28.2 µM [inhibitor, single point]
COCCn1nc2cc(C(=O)NCc3cc(C(F)(F)F)cc(C(F)(F)F)c3)ccc2c1OC 10 µM [inhibitor, single point]
COc1ccc(NC(=O)c2ccccc2OCc2ccc(F)cc2)c(OC)c1 8.91 µM [inhibitor, partial curve, poor fit]
OCC1(Cc2ccccc2C(F)(F)F)CCN(Cc2ccccc2)CC1 12.6 µM [inhibitor, partial curve, poor fit]
CCO[C@@H]1OC(C(=O)NCc2ccccc2)=C[C@H](c2csc3ccccc23)[C@H]1CCCO 11.2 µM [inhibitor, partial curve, poor fit]
O=C(Nc1ccc(C(F)(F)F)cc1)c1cc(S(=O)(=O)NCC2COc3ccccc3O2)ccc1F (stereo unspecified) 3.98 µM [inhibitor, partial curve, poor fit]
CC(C)c1ccc(-c2csc3nc[nH]c(=O)c23)cc1 28.2 µM [inhibitor, single point]
COc1nc(Nc2ccc(C(C)C)cc2)nc(OC)n1 10 µM [inhibitor, single point]
Cc1sc(N/N=C/c2cccs2)nc1-c1ccccc1 14.1 µM [inhibitor, partial curve, poor fit]
Nc1ccc2nc(SCc3ccccc3F)sc2c1 11.2 µM [inhibitor, single point]
CN(C)c1ccc(NS(=O)(=O)c2cc(Cl)ccc2Cl)cc1 20 µM [inhibitor, partial curve, poor fit]
CSc1ccc(CNC(=O)c2cc3c(=O)n(Cc4ccco4)ccc3nc2C)cc1 17.8 µM [inhibitor, single point]
C=C(C)CSc1nnc(CCCCCNC(=O)OC(C)(C)C)o1 20 µM [inhibitor, single point]
Cn1nc(OC(=O)Nc2cccc(Cl)c2)cc1C(F)(F)F 12.6 µM [inhibitor, single point]
Cc1cccc2c1NC(=O)/C2=C\C(=O)c1cccs1 11.2 µM [inhibitor, partial curve, poor fit]
O=C(NCCc1ccc(Cl)cc1)c1ccc(CS(=O)(=O)Cc2ccccc2F)o1 28.2 µM [inhibitor, single point]
CC1CCN(Cc2c(C(=O)N/N=C/c3ccc(OC(C)C)cc3)nnn2-c2nonc2N)CC1 10 µM [inhibitor, partial curve, poor fit]
Cc1cc(NC(=O)CN2C(=O)NC(c3ccccc3)(c3ccc(C)c(C)c3)C2=O)no1 (stereo unspecified) 28.2 µM [inhibitor, single point]
CCC(CC)NC(=O)CC(c1ccccc1)c1ccccc1 28.2 µM [inhibitor, single point]
Cc1ccsc1/C=N/NC(=O)c1cc(-c2ccncc2)nc2ccccc12 1.12 µM [inhibitor, full curve, poor fit]
Cc1ccc(Nc2ccc(C(=O)NC3CCCCC3)cn2)cc1 3.55 µM [inhibitor, full curve, poor fit]
O=C(Cn1cnc([N+](=O)[O-])n1)N/N=C/c1ccc(O)cc1O 28.2 µM [inhibitor, single point]
Cc1ccc(-n2c(SCC(=O)Nc3cccc(Cl)c3)nc3n[nH]c(C)c3c2=N)cc1 28.2 µM [inhibitor, single point]
COc1ccc([N+](=O)[O-])cc1NCc1ccccc1C 28.2 µM [inhibitor, partial curve, poor fit]
Oc1ccccc1N=Cc1c(O)ccc2oc3c(c12)CCCC3 7.94 µM [inhibitor, partial curve, poor fit]
Cc1cnc(NC(=O)C2CC(=O)N(c3cccc(Cl)c3)C2)s1 (stereo unspecified) 3.55 µM [inhibitor, partial curve, poor fit]
C/C(=N\Nc1nc2ccccc2[nH]1)c1ccc(C)o1 31.6 µM [inhibitor, single point]
O=C(CCCc1ccccn1)c1cccc2ccccc12 14.1 µM [inhibitor, single point]
Cc1ccc(S(=O)(=O)N2C[C@H]3C(=O)C[C@@H](c4cccc(Cl)c4)N(S(=O)(=O)c4ccc(C)cc4)[C@H]3C[C@H]2c2ccccc2)cc1 3.55 µM [inhibitor, partial curve, poor fit]
CCN(C(=O)c1cccc(S(=O)(=O)N(C)C)c1)C12CC3CC(CC(C3)C1)C2 6.31 µM [inhibitor, partial curve, poor fit]
COc1cc(OC)c(OC)cc1/C=C1\CC(C)C/C(=C\c2cc(OC)c(OC)cc2OC)C1=O (stereo unspecified) 31.6 µM [inhibitor, single point]
CCCOC(=O)c1cccc(Nc2nc(-c3cccnc3)nc3ccccc23)c1 10 µM [inhibitor, partial curve, poor fit]
S=C1NC[C@H](c2ccccc2)N1CC1CCCCC1 28.2 µM [inhibitor, single point]
CC(C)(C)C(=O)C(Cc1ccccc1)n1cncn1 (stereo unspecified) 5.62 µM [inhibitor, full curve, poor fit]

Potency, active:
CCCCOC(=O)c1ccc(NC(=O)Cc2coc3ccc(C(C)C)cc23)cc1 7.94 µM
CCNc1nc(C23CC4CC(CC(C4)C2)C3)cs1 2.82 µM
COc1ccc(Cn2c(O)c(C=Nc3ccc(O)cc3)c3ccccc3c2=O)cc1 8.91 µM
CC(C)N(C(=O)CSc1nc2ccccc2n1Cc1ccccc1F)C(C)C 2.24 µM
O=C(N/N=C/c1ccc(-c2ccccc2)o1)c1ccccc1O 10 µM
CC(C)c1ccc(Nc2c(-c3ccccc3O)nc3cnccn23)cc1 10 µM

Activity change, negative = inhibition, inconclusive:
Fc1ccc(-c2nnn(Cc3ccc(F)cc3Cl)n2)cc1 -65.5% [inhibitor]

Activity change, negative = inhibition, inactive:
CC(C)c1ccc(/C=N\NC(=O)c2ccc(Cn3cccn3)o2)cc1 -35.9%
Cc1cccc(C(=O)Nc2nc(-c3ccc(Br)cc3)ns2)c1 13.7%
CC(OC(=O)c1cccc(S(=O)(=O)N2CCOCC2)c1)C(=O)NCC1CCCCC1 (stereo unspecified) -10.6%
Cc1ccc(S(=O)(=O)NCCCN2CCCC2)cc1 9.95%
CCSc1nc2c(c(=O)[nH]c(=O)n2C)n1CC(O)COc1ccc(Cl)cc1 (stereo unspecified) -3.6%
Cc1cc(C)cc(N2CN=c3s/c(=C\c4ccco4)c(=O)n3C2)c1 21.2%
O=C(c1noc2c1CCCC2)N1CCc2c([nH]c3ccccc23)C1c1ccccn1 (stereo unspecified) -18.7%
Cn1c(Oc2ccc(F)cc2)nc2c1c(=O)n(Cc1ccccc1Cl)c(=O)n2C 10.7%
CC(=O)N1CCc2c(sc3c2c(=O)n(-c2ccc(C)cc2)c(=O)n3CC(=O)Nc2ccccc2)C1 13.8%
Cc1cc(N2CCC(C)CC2)nc2ccc(NC(=O)/C=C/c3cccc(Cl)c3)cc12 7%
COc1ccc2oc(C(=O)OCc3nnc(-c4ccccc4)o3)c(C)c2c1 11.5%
Cc1ccc(N2CC(NC(=O)c3ccc4c(c3)OCO4)CC2=O)cc1 (stereo unspecified) 7.08%
Cc1ccccc1NC(=O)Cn1nc(-c2ccc(F)cc2)c2cnc3ccccc3c21 6.64%

From PubChem BioAssay AID624417 (National Center for Advancing Translational Sciences (NCATS), 2012)
